# This is one part of the list. The energies were worked out here from pooled read counts, against the library average; single values are noisy.
# Molecular target: T1, Pho4 (S. cerevisiae) (UniProt P07270)
# T1 sequence: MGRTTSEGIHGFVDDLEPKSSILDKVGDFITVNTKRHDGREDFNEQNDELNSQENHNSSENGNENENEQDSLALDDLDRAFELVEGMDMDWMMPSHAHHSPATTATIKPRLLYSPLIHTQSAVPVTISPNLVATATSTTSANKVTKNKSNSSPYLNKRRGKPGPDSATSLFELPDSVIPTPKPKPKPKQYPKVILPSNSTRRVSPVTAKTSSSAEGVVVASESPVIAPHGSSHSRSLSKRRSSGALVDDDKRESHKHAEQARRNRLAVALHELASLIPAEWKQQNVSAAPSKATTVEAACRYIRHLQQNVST
# Experiment: relative binding free energy (BET-seq); higher = weaker binding
# Settings: reference: library average
row,Sequence,relative binding free energy
1,AATTGCACGTGTTAGA,-0.01 kcal/mol
2,ACGCTCACGTGTGGGG,0.24 kcal/mol
3,AGAGCCACGTGGGGTC,-0.16 kcal/mol
4,ATCGGCACGTGGTTTT,-0.08 kcal/mol
5,CTTGGCACGTGGAAAG,0.05 kcal/mol
6,TTAGACACGTGATGCG,0.01 kcal/mol
7,AGGTGCACGTGCCGGC,0.03 kcal/mol
8,GTATTCACGTGGGGCA,0.09 kcal/mol
9,GAATACACGTGGGTTT,-0.02 kcal/mol
10,TTTGTCACGTGTAGGA,0.08 kcal/mol
11,TGATTCACGTGGATTT,0.19 kcal/mol
12,TTGAGCACGTGAGGCG,0.28 kcal/mol
13,GGTCTCACGTGGAGCG,0.14 kcal/mol
14,AATGACACGTGATGAG,0.11 kcal/mol
15,ATCTACACGTGGTTGG,-0.02 kcal/mol
16,ATGTGCACGTGGTTGA,-0.09 kcal/mol
17,TTTTTCACGTGGTGTA,0.25 kcal/mol
18,TTTGCCACGTGTAGTG,-0.08 kcal/mol
19,TTCGTCACGTGAATGT,0.21 kcal/mol
20,TTGTTCACGTGCAGGT,0.23 kcal/mol
21,CGCTTCACGTGTGGGT,0.13 kcal/mol
22,TAGGACACGTGTCTGG,0.05 kcal/mol
23,ATACTCACGTGGGTAT,0.11 kcal/mol
24,GGATTCACGTGTGTTG,0.34 kcal/mol

row,Sequence,relative binding free energy
1,GGGTGCACGTGGTACG,-0.06 kcal/mol
2,ACTTGCACGTGGGGCG,-0.13 kcal/mol
3,TTGCTCACGTGGAGCG,0.26 kcal/mol
4,CTAGGCACGTGGTGTT,-0.2 kcal/mol
5,GGTTGCACGTGGCAAG,0.09 kcal/mol
6,AGTGGCACGTGATATA,0.05 kcal/mol
7,TTGAGCACGTGCGTTG,-0.13 kcal/mol
8,TAATGCACGTGGCGCT,-0.03 kcal/mol
9,GTGTCCACGTGGAAAG,0.31 kcal/mol
10,TTTAGCACGTGGAAGA,0.1 kcal/mol
11,TTGGTCACGTGAGTCG,0.36 kcal/mol
12,AGAGACACGTGGTGTG,-0.16 kcal/mol
13,TGTGACACGTGTTCTT,-0.02 kcal/mol
14,TTCCTCACGTGAAGGT,0.58 kcal/mol
15,TCGTACACGTGTTAGG,0.03 kcal/mol
16,TAGTGCACGTGAAGTA,0.01 kcal/mol
17,ATTTTCACGTGTTCTT,0.37 kcal/mol
18,TGTTCCACGTGAGGTC,0.4 kcal/mol
19,ATGGTCACGTGTGTCT,0.05 kcal/mol
20,GTGTACACGTGCGTAT,-0.04 kcal/mol
21,TGGTGCACGTGCTGCG,-0.23 kcal/mol
22,GTTTACACGTGGAGTC,0.14 kcal/mol
23,TCTGGCACGTGGTTGG,-0.14 kcal/mol
24,GTCGCCACGTGGGTGT,-0.28 kcal/mol

row,Sequence,relative binding free energy
1,AGTGTCACGTGGTCTG,-0.12 kcal/mol
2,GTTTCCACGTGGGTTT,0.04 kcal/mol
3,TGCGGCACGTGTTGTA,-0.04 kcal/mol
4,AGGAGCACGTGGACGT,-0.05 kcal/mol
5,TGGTGCACGTGCAGTT,0.07 kcal/mol
6,AGCATCACGTGTCGGG,0.15 kcal/mol
7,TCCTTCACGTGGGTTG,0.17 kcal/mol
8,GGTGGCACGTGGCGTA,-0.12 kcal/mol
9,AGTCACACGTGAGGTG,0.13 kcal/mol
10,GACGACACGTGTGTGG,0.04 kcal/mol
11,AGGATCACGTGATGGA,0.29 kcal/mol
12,GTCTGCACGTGGGTGT,-0.06 kcal/mol
13,ATTGTCACGTGTTCAG,-0.02 kcal/mol
14,AAATACACGTGTTTTA,0.04 kcal/mol
15,TTATGCACGTGTAATG,-0.02 kcal/mol
16,GAAGACACGTGTTTTT,0.16 kcal/mol
17,AAGCGCACGTGAAGTG,0.2 kcal/mol
18,GCTGACACGTGTGAGT,0.32 kcal/mol
19,GAGGCCACGTGGAGGT,-0.08 kcal/mol
20,ACGAGCACGTGGAAGG,-0.02 kcal/mol
21,TGTGGCACGTGTGTGG,-0.05 kcal/mol
22,CGGGACACGTGTGTTA,0.08 kcal/mol
23,AATGTCACGTGTTTCG,0.12 kcal/mol
24,AGTAACACGTGAGTGA,0.2 kcal/mol

row,Sequence,relative binding free energy
1,GGTTCCACGTGTTTAA,0.05 kcal/mol
2,GAGTACACGTGATGTG,0.33 kcal/mol
3,AGGGACACGTGGGAGC,-0.04 kcal/mol
4,GATGACACGTGTGGAT,0.16 kcal/mol
5,TATGACACGTGTGGAG,0.03 kcal/mol
6,AGTTTCACGTGTGGAA,0.34 kcal/mol
7,GCGATCACGTGGGGAG,0.1 kcal/mol
8,TAGAACACGTGGTGCT,-0.06 kcal/mol
9,GTATACACGTGGCTGT,-0.13 kcal/mol
10,GGGTGCACGTGGTATA,-0.08 kcal/mol
11,GGATCCACGTGTGTTT,0.18 kcal/mol
12,CAGTTCACGTGTTTTG,0.29 kcal/mol
13,AATTGCACGTGCGTGA,-0.04 kcal/mol
14,ATAGGCACGTGTTATA,-0.31 kcal/mol
15,GAAGTCACGTGGTATT,0.13 kcal/mol
16,AAAATCACGTGTAGTG,0.14 kcal/mol
17,TGGGTCACGTGCATGA,0.04 kcal/mol
18,GGGGGCACGTGACTGG,-0.04 kcal/mol
19,TAATACACGTGGTTAA,0 kcal/mol
20,CCTTGCACGTGTTGGG,0.02 kcal/mol
21,ATCTTCACGTGTTCGG,0.27 kcal/mol
22,TTTGGCACGTGAATAG,0.14 kcal/mol
23,TTTAACACGTGGTCTA,-0.01 kcal/mol
24,GGGGTCACGTGGTCGA,-0.01 kcal/mol

row,Sequence,relative binding free energy
1,CTGGGCACGTGAGGTT,0.07 kcal/mol
2,GGATTCACGTGACGGG,0.55 kcal/mol
3,AAGTACACGTGGGTTT,-0.01 kcal/mol
4,TGGCACACGTGTATTA,0.11 kcal/mol
5,TGGTACACGTGAGATG,0.28 kcal/mol
6,AAATACACGTGTGGCT,0.14 kcal/mol
7,ATCTTCACGTGTGTTA,0.25 kcal/mol
8,GTTGGCACGTGGATTC,0.05 kcal/mol
9,GGAGTCACGTGCAAGG,0.14 kcal/mol
10,TGTTCCACGTGGGAAT,0.03 kcal/mol
11,CAGTGCACGTGTCGTT,0.03 kcal/mol
12,TAAGGCACGTGTGAGG,-0.06 kcal/mol
13,GGAAGCACGTGGGTCT,-0.24 kcal/mol
14,TATTTCACGTGTAGAA,0.25 kcal/mol
15,AGGGTCACGTGGATGG,0.14 kcal/mol
16,GGCGTCACGTGATTGG,0.29 kcal/mol
17,AGCAGCACGTGTGTGT,-0.08 kcal/mol
18,GCTTGCACGTGGAGCG,0.17 kcal/mol
19,TGGGTCACGTGATGTG,0.15 kcal/mol
20,GTCAGCACGTGAGAGT,0.15 kcal/mol
21,AGTGTCACGTGGAAGT,0.16 kcal/mol
22,ATGGACACGTGAGGAA,0.37 kcal/mol
23,GCGGTCACGTGGATTT,0.26 kcal/mol
24,GTACGCACGTGGTAGG,-0.21 kcal/mol

row,Sequence,relative binding free energy
1,GAAGACACGTGTGAGG,0.1 kcal/mol
2,AATAGCACGTGTGTGT,-0.2 kcal/mol
3,GAGCGCACGTGGAGTT,0.03 kcal/mol
4,TTGAGCACGTGCGCGG,-0.2 kcal/mol
5,GAGCACACGTGGGAGT,0.13 kcal/mol
6,AAGGACACGTGGCGGA,0.03 kcal/mol
7,TATATCACGTGGCGTA,-0.01 kcal/mol
8,TTGGGCACGTGATGGA,0 kcal/mol
9,CCGGGCACGTGTGTAG,-0.06 kcal/mol
10,CGCTGCACGTGTGTTG,0.05 kcal/mol
11,CATGTCACGTGGGTTG,-0.02 kcal/mol
12,GGTAGCACGTGGGAAA,-0.12 kcal/mol
13,AAACACACGTGGGGGG,-0.13 kcal/mol
14,CATTTCACGTGTGGAT,0.32 kcal/mol
15,GATGGCACGTGGGTCA,-0.2 kcal/mol
16,CGTGACACGTGAGTGA,0.19 kcal/mol
17,GTGTACACGTGGGCGG,0.04 kcal/mol
18,AGATTCACGTGTCTTT,0.33 kcal/mol
19,AGATTCACGTGTGTTA,0.25 kcal/mol
20,TAACGCACGTGGGGGT,-0.27 kcal/mol
21,TGTAGCACGTGTGTAA,-0.03 kcal/mol
22,TGGGGCACGTGAACGG,0.08 kcal/mol
23,ACTGGCACGTGGGTAT,-0.15 kcal/mol
24,TGGTTCACGTGGTAGG,0.31 kcal/mol

row,Sequence,relative binding free energy
1,GTTTACACGTGAGAGT,0.28 kcal/mol
2,TGTTCCACGTGGAAGT,0.09 kcal/mol
3,CGTCTCACGTGATGTT,0.29 kcal/mol
4,TACGGCACGTGTGTCG,-0.07 kcal/mol
5,ACAGTCACGTGTGTGT,0 kcal/mol
6,ACTATCACGTGTGGTT,0.23 kcal/mol
7,CGTGTCACGTGGTAAG,-0.04 kcal/mol
8,GTGCGCACGTGATGGG,0.12 kcal/mol
9,AATGTCACGTGGTCAA,0.02 kcal/mol
10,TGGGTCACGTGTAGAA,0.14 kcal/mol
11,GTTGTCACGTGCGGGG,0.09 kcal/mol
12,CCGGTCACGTGATGGG,0.31 kcal/mol
13,TGTTACACGTGTTTCA,0.08 kcal/mol
14,CTGTGCACGTGTATTA,-0.04 kcal/mol
15,TGGTGCACGTGATGTC,0.23 kcal/mol
16,GGCGGCACGTGGGAGG,-0.1 kcal/mol
17,TATGGCACGTGGTCAG,-0.18 kcal/mol
18,TCCTTCACGTGAGGGT,0.36 kcal/mol
19,TCGGTCACGTGGTGGG,0.09 kcal/mol
20,TCCATCACGTGGTGTT,0.15 kcal/mol
21,TCGGGCACGTGTTTAT,-0.12 kcal/mol
22,TAGGGCACGTGCTGGC,-0.2 kcal/mol
23,ATGATCACGTGAGTAT,0.3 kcal/mol
24,ATGTACACGTGGGGTG,-0.13 kcal/mol

row,Sequence,relative binding free energy
1,AGTGTCACGTGTATAG,0.08 kcal/mol
2,GTATTCACGTGGGGGA,0.16 kcal/mol
3,CGTATCACGTGAGTGT,0.23 kcal/mol
4,TTGCACACGTGTCGGT,0.16 kcal/mol
5,CATTGCACGTGGTTTG,-0.04 kcal/mol
6,GGTTGCACGTGGAGAG,0.08 kcal/mol
7,TTAGGCACGTGTTGAA,-0.01 kcal/mol
8,ATGTCCACGTGTTGAG,0.15 kcal/mol
9,TGGAGCACGTGTGATT,0.12 kcal/mol
10,GATAACACGTGAGGTT,0.32 kcal/mol
11,TTTTGCACGTGTAAGT,0.05 kcal/mol
12,ATTGGCACGTGACCGT,0.04 kcal/mol
13,GAAGCCACGTGTAGGG,0.01 kcal/mol
14,GCTTTCACGTGAGTTG,0.37 kcal/mol
15,TTAGGCACGTGTAGAC,0.1 kcal/mol
16,GGTTTCACGTGATCTT,0.39 kcal/mol
17,AAGATCACGTGGCTGG,0.07 kcal/mol
18,CGTTGCACGTGGTCGT,-0.19 kcal/mol
19,TAGGGCACGTGGCAGT,-0.16 kcal/mol
20,GGAAGCACGTGAGTTA,0.17 kcal/mol
21,GTTATCACGTGAAATA,0.36 kcal/mol
22,AGTTACACGTGTCTTG,0 kcal/mol
23,CTGTTCACGTGAAGTG,0.44 kcal/mol
24,TATGGCACGTGGGCGT,-0.34 kcal/mol

row,Sequence,relative binding free energy
1,TGTATCACGTGGAGGC,0.14 kcal/mol
2,CGGATCACGTGATGTT,0.26 kcal/mol
3,CTAGTCACGTGAGGGG,0.16 kcal/mol
4,CTAATCACGTGGATGG,0.15 kcal/mol
5,TGGCTCACGTGAGGGC,0.42 kcal/mol
6,TTTTGCACGTGACTTG,0.12 kcal/mol
7,GCTATCACGTGGAGGG,0.13 kcal/mol
8,GAGTTCACGTGAAGCG,0.43 kcal/mol
9,GAAATCACGTGATTTT,0.4 kcal/mol
10,TCTTTCACGTGGATTG,0.17 kcal/mol
11,AGATACACGTGCGGGG,-0.01 kcal/mol
12,GAGTGCACGTGGTTCA,-0.12 kcal/mol
13,ATTTTCACGTGAGGGA,0.27 kcal/mol
14,TATTACACGTGTTAGA,0.1 kcal/mol
15,TGGCTCACGTGGTTGG,0.17 kcal/mol
16,TCGAGCACGTGGTAGT,-0.23 kcal/mol
17,TGGTGCACGTGAGTGT,0.13 kcal/mol
18,AGATTCACGTGTTAAT,0.21 kcal/mol
19,GTTAACACGTGACTGG,0.15 kcal/mol
20,CTAGTCACGTGCTGGT,0.12 kcal/mol
21,CGGGACACGTGGGTAT,-0.11 kcal/mol
22,CAGGGCACGTGGGCGA,-0.22 kcal/mol
23,AAATACACGTGTGGTG,0.05 kcal/mol
24,TGGAGCACGTGTAATG,0.08 kcal/mol

# — the BET-seq Pho4 binding data (Le et al. 2018)
